We go through 58 compounds from article PMC4336329 (PLoS ONE, 2015).

Hit rate of the full screen: of about 310,000 compounds, about 2,200 (0.71%) showed an effect of 50% or more. The effect is printed as a negative number. The list shows a part of the results.

In this assay the target is human ether-à-go-go-related gene (hERG) potassium channel (human, UniProt Q12809). As to the kind of experiment: primary screen, population patch clamp on CHO cells stably expressing hERG.
Chain of human ether-à-go-go-related gene (hERG) potassium channel (Q12809 whole entry, looked up): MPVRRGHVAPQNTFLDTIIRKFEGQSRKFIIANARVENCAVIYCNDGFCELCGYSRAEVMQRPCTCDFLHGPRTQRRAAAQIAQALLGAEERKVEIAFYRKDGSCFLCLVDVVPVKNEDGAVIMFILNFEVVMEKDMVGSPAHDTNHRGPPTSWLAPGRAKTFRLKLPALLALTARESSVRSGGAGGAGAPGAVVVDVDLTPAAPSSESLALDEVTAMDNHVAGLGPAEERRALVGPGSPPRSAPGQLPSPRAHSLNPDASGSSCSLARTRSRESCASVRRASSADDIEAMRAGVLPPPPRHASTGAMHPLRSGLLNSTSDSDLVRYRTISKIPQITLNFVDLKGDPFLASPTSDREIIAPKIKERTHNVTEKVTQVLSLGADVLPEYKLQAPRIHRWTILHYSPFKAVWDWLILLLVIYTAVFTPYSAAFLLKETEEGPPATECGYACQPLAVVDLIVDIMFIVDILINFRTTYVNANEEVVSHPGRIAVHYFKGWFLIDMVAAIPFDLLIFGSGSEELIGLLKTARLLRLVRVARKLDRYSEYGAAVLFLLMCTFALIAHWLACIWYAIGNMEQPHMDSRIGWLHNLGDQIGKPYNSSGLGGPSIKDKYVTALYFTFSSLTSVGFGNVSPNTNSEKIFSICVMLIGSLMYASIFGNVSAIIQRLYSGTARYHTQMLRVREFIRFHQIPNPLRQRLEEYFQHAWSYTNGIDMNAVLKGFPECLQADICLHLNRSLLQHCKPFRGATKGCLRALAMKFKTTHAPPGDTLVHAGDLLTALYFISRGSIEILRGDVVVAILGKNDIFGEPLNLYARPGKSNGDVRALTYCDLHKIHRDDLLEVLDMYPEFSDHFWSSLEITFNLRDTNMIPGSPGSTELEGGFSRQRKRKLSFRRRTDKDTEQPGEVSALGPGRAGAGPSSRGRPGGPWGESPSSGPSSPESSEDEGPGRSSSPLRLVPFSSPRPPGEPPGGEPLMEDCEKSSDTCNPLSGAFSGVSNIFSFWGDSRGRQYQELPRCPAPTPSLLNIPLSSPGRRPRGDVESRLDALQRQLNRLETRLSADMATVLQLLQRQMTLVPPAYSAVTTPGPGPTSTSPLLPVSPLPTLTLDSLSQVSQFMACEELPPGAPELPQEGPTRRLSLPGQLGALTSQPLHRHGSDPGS
Regarding `CC1CCCCN1CCCNC(=O)C1CCN(c2nc3ccccc3o2)CC1` (stereo not shown), the “hERG current change (%, negative = inhibition) at 1uM” value was determined as 14.5%.
For `CCC(C)C1Nc2ccc(C(=O)NCc3ccc4c(c3)OCO4)cc2NC1=O` (stereo not shown) the value was 7.33%; for `CCCS(=O)(=O)NCCc1cc2c(OC)ccc(OC)c2[nH]c1=O`, 5.46%.
For `C#CCNC(=O)c1cccn1-c1ncc(C(F)(F)F)cc1Cl` the value was 6.06%; for `Cc1ccc(CCNC(=O)C2CCN(S(=O)(=O)c3ccc4c(c3)NC(=O)C(C)S4)CC2)cc1` (stereo not shown), 13%.
For the compound `CCCCCN(C(=O)NC(=O)Nn1cnnc1)S(C)(=O)=O`, the “hERG current change (%, negative = inhibition) at 1uM” value was 5.49%.
`O=C1C2C3C=CC(CC3)C2C(=O)N1/N=C/c1c[nH]c2ccccc12` (stereo not shown): the “hERG current change (%, negative = inhibition) at 1uM” value is 14%.
For `COc1ccc(CCC(=O)NCc2ccc3c(c2)OCO3)cc1`, the “hERG current change (%, negative = inhibition) at 1uM” value worked out at 0.183%.
For `CN1C(=O)/C(=C/c2ccccc2OCc2ccc(F)cc2)N(C)C1=S` the value was 10.6%; for `CC(NC(=O)Cc1ccc(Br)cc1)c1ccccc1` (stereo not shown), 11.7%; for `COc1ccc(CC(C(=O)Nc2cc(C)ccc2C)/C(N)=N/O)cc1` (stereo not shown), 12.8%.
On to `Cc1ccccc1-c1nc(CN2CCC(C(=O)NCC3CCCO3)CC2)c(C)o1` (stereo not shown), for which the “hERG current change (%, negative = inhibition) at 1uM” value is on record as -15%.
Regarding `Cc1ccc(N(C(=O)c2cnccn2)C(C(=O)NC2CCCCC2)c2ccc(O)cc2)cc1` (stereo not shown), the “hERG current change (%, negative = inhibition) at 1uM” value was -0.364%.
For `COc1ccccc1CNC(=O)COC(=O)COc1ccccc1F` the value was -4.63%; for `O=C(O)CNC(=O)CC1S/C(=N/N=C2/NC(=O)CS2)NC1=O` (stereo not shown), 17.2%.
For the compound `CCOc1ccc(-n2c(C)c(C(C)=O)c3cc(OCC(N)=O)ccc32)cc1`, the “hERG current change (%, negative = inhibition) at 1uM” value amounted to 8.52%.
As to `O=C(CN1C(=O)C(=O)c2ccccc21)NC1CCCCC1`, the “hERG current change (%, negative = inhibition) at 1uM” value was 9.98%.
For `Cn1cc(Br)c(-c2cccc(N3C(=O)CC(C)(C)CC3=O)c2)n1`, the “hERG current change (%, negative = inhibition) at 1uM” value is reported as 9.52%.
Consider `COC(=O)[C@H](Cc1ccccc1)NC(=O)N1CCCCC1`, for which the “hERG current change (%, negative = inhibition) at 1uM” value is 10.5%.
Consider `O=C(COc1cc(Cl)c(Cl)cc1Cl)Nc1cccc(O)c1`, for which the “hERG current change (%, negative = inhibition) at 1uM” value is 11.3%.
As for `Fc1ccc(Cn2cnc3ccccc32)cc1`, the “hERG current change (%, negative = inhibition) at 1uM” value is 4.34%.
Consider `CC(C)c1nc(C(=O)N2CCc3c([nH]c4ccccc34)C2c2ccccn2)cs1` (stereo not shown), for which the “hERG current change (%, negative = inhibition) at 1uM” value was determined as 9.2%.
As for `O=C(/C(C=Nc1cc2c(oc1=O)CCCC2=O)=C(\O)c1ccccc1)c1ccccc1`, the figure is 20%; as for `COc1ccc(C(CC(=O)NCc2ccco2)c2ccc(F)cc2)cc1` (stereo not shown), 3.89%.
Regarding `O=C(CC(=O)c1ccccc1)Nc1cccnc1Cl`, the “hERG current change (%, negative = inhibition) at 1uM” value came out at 8.69%.
As for `CN(Cc1cc2ccccc2[nH]c1=O)S(=O)(=O)c1ccccc1`, the figure is 11.6%; as for `O=c1[nH]n(CCO)c(=O)c2cccnc12`, 11.5%; as for `O=c1c(-c2nc3ccccc3s2)cccn1Cc1ccccc1`, 0.851%.
Turning to `Cc1cc(-n2nc(C)cc2C)n2ncc(-c3ccccc3)c2n1`, the “hERG current change (%, negative = inhibition) at 1uM” value is recorded as 17.2%.
As for `CCc1ccccc1NC(=O)N1C2CCCC1CC(NC(=O)C(C)(C)C)C2` (stereo not shown), the figure is -12%; as for `CCCCN(CCCNc1ncnc2nc[nH]c12)c1ccccc1`, 7.39%; as for `CCN(CC(=O)NC(=O)NC1CCCCC1)Cc1nc2ccccc2c(=O)[nH]1`, 8.36%.
As to `COc1ccc(C(=O)NC2CCN(C(=S)Nc3ccc(C)c(C)c3)CC2)cc1`, the “hERG current change (%, negative = inhibition) at 1uM” value stood at 5.23%.
As to `COc1ccc(/C=C(\NC(=O)c2ccccc2)C(=O)N/N=C/c2ccncc2)cc1`, the “hERG current change (%, negative = inhibition) at 1uM” value was 10.4%.
As for `CCN(CC)c1ccc(/C=N/N2CCN(Cc3ccccc3Cl)CC2)cc1`, the figure is 15.6%; as for `CN(CP(=O)(O)C(O)c1ccccc1)S(C)(=O)=O` (stereo not shown), 4.97%; as for `Cc1cc(C)c2oc(C(=O)N(Cc3ccccc3)c3ccccn3)cc(=O)c2c1`, 6.86%.
`Cc1ccc(SCC(=O)NCCc2ccccc2)cc1`: the “hERG current change (%, negative = inhibition) at 1uM” value is given as 19%.
For `NCCNC[C@@H]1COC2(CCCCCCCCCCC2)O1` the value was 11.5%; for `CCN(C(=O)c1ccc(NC(=O)Cc2ccccc2)cc1)c1ccccc1`, -7.24%.
Take `COC(=O)[C@@H](NCc1cccc(CN[C@H](C(=O)OC)c2ccccc2)c1)c1ccccc1`: the “hERG current change (%, negative = inhibition) at 1uM” value turned out to be 7.42%.
As for `COC(=O)C1=C(C(=O)OC)[C@@H]2N(C)c3ccccc3[C@@]23C[C@@H](C(=O)OC)N(C(=O)c2ccco2)C3=N1`, the figure is 2.5%; as for `Cc1cccc(C(=O)OCC(=O)NCC(C)C)c1O`, 16.1%; as for `Cc1cc(S(=O)(=O)NCCCn2ccnc2)c(C)cc1Cl`, 0.782%.
For `O=S(=O)(NCCCCCNS(=O)(=O)c1ccccc1)c1ccccc1` the value was 11.4%; for `O=C(Nc1ccc(C(=O)N2CCCCC2)cc1)C1CCCCC1`, 0.109%; for `Cc1ccc(-c2nc(CN(C)C3CCOC3)c(C)o2)s1` (stereo not shown), 7.45%.
Regarding `Cc1cc(C)cc(OCC(=O)N(Cc2ccc(N(C)C)cc2)C2CCS(=O)(=O)C2)c1` (stereo not shown), the “hERG current change (%, negative = inhibition) at 1uM” value is on record as 15.3%.
Consider `CCOc1cc(NC(=S)NCC2CCCO2)c(OCC)cc1NC(=O)C1CC1` (stereo not shown), for which the “hERG current change (%, negative = inhibition) at 1uM” value was 14.7%.
As to `Cc1ccc(NCc2nnc(SCC(=O)O)n2Cc2ccccc2)cc1Cl`, the “hERG current change (%, negative = inhibition) at 1uM” value is recorded as 14.4%.
For the compound `O=C(Nc1nc(=O)n(C(=O)C2CC2)s1)c1ccccc1`, the “hERG current change (%, negative = inhibition) at 1uM” value was 2.74%.
In the case of `CCOc1ccc(NC(=O)CN(C)C(=O)c2cc(-c3ccncc3)nc3ccccc23)cc1OCC`, the “hERG current change (%, negative = inhibition) at 1uM” value was -0.704%.
For `CCOC(=O)c1c(-c2cccc([N+](=O)[O-])c2)csc1NC(=O)CCCOc1ccccc1`, the “hERG current change (%, negative = inhibition) at 1uM” value came out at 6.83%.
For the compound `Nc1ccn(-c2ccc(Cl)cc2)c(=O)c1`, the “hERG current change (%, negative = inhibition) at 1uM” value came out at 12.3%.
As for `CCCCCCN=C(C)C1=C(O)C(C(=O)OC)C(C)(C)CC1=O` (stereo not shown), the “hERG current change (%, negative = inhibition) at 1uM” value was -2.64%.
With `O=c1oc2ccccc2c(Nc2ccccc2)c1CN1CCCCC1`, the “hERG current change (%, negative = inhibition) at 1uM” value is given as -17.7%.
Turning to `Cc1cc(Cl)ccc1OCC(=O)NC1CCCC1`, the “hERG current change (%, negative = inhibition) at 1uM” value is given as -0.343%.
Regarding `CC(C(=O)c1ccc(-c2ccccc2)cc1)[n+]1ccccc1.[Br-]` (stereo not shown), the “hERG current change (%, negative = inhibition) at 1uM” value is listed as 10.6%.
